± gives the standard deviation. The entries are a selection whose mix differs from that of the whole data set.
tested on: MIWI (PIWIL1) piRISC loaded with L1MC piRNA (30 nt); test: pre-steady-state target cleavage rate (min^-1); MIWI and MILI are mouse PIWI proteins and EfPiwi is from a freshwater sponge; tags in brackets are library labels; higher = faster piRNA-guided slicing of the target; details: guide: L1MC piRNA 5'p-UAACUAAAUACUAUGCAAGCUGUAGGUCCU; auxiliary factor: 500 nM mouse GTSF1
In short: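 Cleave-'n-Seq measured uncleaved targets by sequencing after a transcribed, DNA-blocked target RNA library […] was mixed with 1 nM active affinity-purified piRISC holding one synthetic guide, with or without 500 nM GTSF1 partner protein, at 33 °C in HEPES–potassium acetate buffer for 0–8 or 0–960 min. Counts were normalised to depth and to weakly complementary targets, three trials were pooled, and k3 was capped at 0.0001 min^-1. A burst-and-steady-state fit gave the pre-steady-state cleavage rate.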
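Further: 1 nM active piRISC with 0.1 nM target library at 33 °C single turnover.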

Row | Sequence | pre-steady-state target cleavage rate
1 | UCCUGCUACACCUUGCAUAGUAUUUACAAA | 0.245 ± 0.056
2 | UCCUGGAACAGCUUGCAUAGUAAUUACAAA | 0.129 ± 0.038
3 | UCCUGGAUGAGCUUCCAAAGUAUUUAGUUA | 0.0261 ± 0.007
4 | UCGACCUACAGCUUGCAUAGUUAAUUCAAA | 0.538 ± 0.15
5 | UCCACCUACAGGAUGCAUAGUAUUUUCAAA | 0.299 ± 0.053
6 | UCCUGCUACAGCUUGACAUAGUAUUUAGUUA | 0.386 ± 0.04
7 | UGGACCUACACGUUGCAUAGUAUUUACAAA | 0.103 ± 0.013
8 | UCCUGGAUGAGCUUCCAUAGUAUUUUGUUA | 0.00578 ± 0.005
9 | AGGACCUACAGCUUCGAUAGUAUUUACAAA | 0.0535 ± 0.017

same assay, conditions: guide: L1MC piRNA 5'p-UAACUAAAUACUAUGCAAGCUGUAGGUCCU; auxiliary factor: none (no GTSF1)

Row | Sequence | pre-steady-state target cleavage rate
10 | AGGACCUACAGCAUGCAUAGUAUUUAGUUA | 0.073 ± 0.015
11 | UCGACCUACAGCUUGCAUGGUAUUUAGUUA | 0.0512 ± 0.011
12 | UCCUGGAUGUCGAACCAUGAGUAUUUAGUUA | < 0.0001
13 | UCGACCUACAGCUUGCAUAGUAUUAUAGUUA | 0.0387 ± 0.007
14 | UCCUGGAUGUCGAACGUAAGUAUAAAGUUA | < 0.0001
15 | UCCUGGAUGUCGAACGUAUCUAAUUAGUAA | < 0.0001
16 | UCCUGGAUGUCGAACGUUAGUAUUUUCAAA [g6:g13:cont:t1A] | < 0.0001
